Reference: PubChem BioAssay AID493208 (National Center for Advancing Translational Sciences (NCATS), 2011)
In all, about 44,000 compounds went through this assay and about 340 (0.77%) were called active. Another 5% or so got no clear call; they are omitted. The call rests on the fitted dose curve; in most records, active means well fitted inhibition curve with a large enough effect; inconclusive means small, poorly fitted or top-dose-only effect; inactive means flat fitted curve, though single readings scatter. This is one part of the list.

assay: Acumen qHTS Assay for Inhibitors of the mTORC1 Signaling Pathway in MEF (Tsc2-/-, p53-/-) Cells: Sytravon; details: phospho-rpS6 immunofluorescence/PI, 24 h; series mostly up to 38.3 µM; activity change, negative = inhibition: at the top concentration;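 further: plate controls were DMSO for no effect and rapamycin for full effect; nearly all actives have a fitted effect of over 50% in size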
In short: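 Plate MEFs (Tsc2-/-, p53-/-, empty vector) in DMEM/10% FBS; after 24 h add compound, incubate 24 h at 37 degree Celsius; fix in PFA/TX-100, block, stain phospho-rpS6 and 10 uM PI; scan at 488 nm; report % positive cells.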

Activity change, negative = inhibition, inactive:
Cc1cc(C)cc(N2C(=O)CSC23C(=O)N(CC(=O)Nc2ccc(F)cc2F)c2ccccc23)c1 (stereo unspecified) 4.37%, CCCCc1nn2c(=O)cc(COC(=O)c3ccc(NC(=O)CCc4ccccc4)cc3)nc2s1 0%, CCOCCCN1C(=O)c2[nH]nc(-c3ccccc3O)c2C1c1ccc(CC)cc1 (stereo unspecified) -19.7%, CCOC(=O)c1oc2c(c1C)-c1nn(Cc3c(F)cccc3Cl)cc1CC2 -0.416%, CCCCN(C)S(=O)(=O)c1ccc(C(=O)Nc2sc3c(c2C(N)=O)CC(C)(C)NC3(C)C)cc1 0.0542%, CCCc1ccc(-c2ccc(C(=O)Oc3ccc(OCC)cc3)cc2)nc1 -9.38%, Cc1ccc(CCNC(=O)CS(=O)Cc2nc(-c3ccccc3C)oc2C)cc1 (stereo unspecified) -4.93%, Cc1c(CCC(=O)NCc2cccc(Cl)c2)c(=O)oc2c(C)c(O)ccc12 0.491%, CCN(Cc1ccccc1)C(=O)Cn1c(=O)n(-c2ccc(Cl)cc2)c(=O)c2c(C)c(C(=O)N(C)C)sc21 0.562%, O=C(Cn1cnc2c(oc3ccccc32)c1=O)Nc1ccc(F)cc1F -10.1%, O=C(CSc1nc2c(oc3ccccc32)c(=O)n1Cc1ccco1)Nc1ccccc1Cl -0.283%, O=C(Cn1ncc2c3ccccc3n(Cc3cccc(Cl)c3)c2c1=O)NCc1cccs1 -2.18%, CCc1ccc(OCc2nc(-c3ccc(OC)cc3)no2)c(Br)c1 3.77%, O=C(Nc1nc2ccccc2s1)c1ccc(S(=O)(=O)N2CCCC2)cc1 -0.48%, O=S(=O)(c1ccc2nc(NCc3ccccc3Cl)ccc2c1)N1CCCCC1 -15.7%, CCOc1ccc(C2C(=O)N(C3CCCCCC3)CC(=O)N2CCc2ccc(OC)c(OC)c2)cc1OC (stereo unspecified) 11.4%, CC(CNC(=O)c1ccc(CSc2nc3ccncc3n2Cc2ccccc2)cc1)c1ccccc1 (stereo unspecified) -14.7%, COc1ccc(CNC(=O)CSc2nc(-c3ccc(OC)c(OC)c3)cc(C(F)(F)F)n2)cc1 -26%, COc1cc(Cl)c(NS(=O)(=O)c2ccc(-c3cnc(C4CC4)o3)cc2)c(OC)c1 -29.3%, CCCC12CN3CC(CCC)(CN(C1)C3c1ccccc1)C2=O (stereo unspecified) 6.77%, CCOC(=O)c1cc(S(=O)(=O)N2CCN(c3ccc(C(C)=O)cc3)CC2)[nH]n1 3.93%, CCOC(=O)c1ccc(NC(=O)NCCOCCn2c(=O)oc3ccccc32)cc1 -0.847%, CCS(=O)(=O)c1nc(S(=O)(=O)c2ccc(C)cc2)c(NCCCOC)s1 -15.9%, CCn1c(CNC(=O)c2ccc(OC)cc2)nnc1SCC(=O)Nc1ccc(C)cc1 2.28%, Cc1cc2oc3c(c(=O)c2cc1C)C1(C(=O)N(C)c2ccccc21)N(CCO)C3=O (stereo unspecified) 6.58%, COc1ccc(N2CC(NC(=O)c3ccco3)CC2=O)cc1 (stereo unspecified) -5.32%, Nc1cc(=O)nc(SCC(=O)Nc2ccc(F)cc2)n1CCc1ccccc1 -14.3%, COc1ccccc1NC(=O)C1CCN(C(=O)c2sc3nc[nH]c(=O)c3c2C)CC1 -9.86%, CC(=O)c1ccc(NC(=O)c2ccc(-c3ccc(Cl)cc3)o2)cc1 -4.14%, Cc1cccc(CCNC(=O)CCc2c(C)nc3c4c(C)cc(C)nc4nn3c2C)c1 -11.9%, COc1ccc(CNC(=O)Cn2ncc3c([nH]c4ccccc43)c2=O)cc1 -12.6%, Cc1nn(-c2ccc(N3CCCC3)nn2)c(C)c1CCC(=O)Nc1ccc(F)cc1F 0.936%, CCc1cccc(C)c1NC(=O)Cn1c(=O)cc(C)c2c(C)nn(-c3cccc(F)c3)c21 -5.13%, COc1ccccc1N1CCN(c2cc(C)nc3nc(-c4ccc(C)cc4)nn23)CC1 3.71%, O=C(NCc1ccc(F)cc1)c1ccc(Nc2nc3ccccc3n3nnnc23)cc1 -6.67%, Cc1c(C(=O)Nc2ccccc2F)sc2ncnc(N(C)C3CCCCC3)c12 0.517%, COc1ccc(C)cc1NC(=O)c1ccc2c(SCC(=O)O)c3c(nc2c1)CCCC3 1.39%, CCOc1ccc(NC(=O)C2CC(=O)N(c3ccc(C(C)C)cc3)C2)cc1 (stereo unspecified) -17.5%, COc1ccc(NC(=O)c2sc3nc[nH]c(=O)c3c2C)cc1Cl -2.8%, Cn1c(=O)n(-c2ccc3c(c2)OCO3)c2nc(-c3ccccc3)nc(C(N)=O)c21 0.57%, CCOC(=O)CC(NC(=O)Cn1nnc(-c2ccc(C(F)(F)F)cc2)n1)c1ccc(OC)cc1 (stereo unspecified) 1.08%, Cc1cc(C)cc(NC(=O)CSc2cc(C)[nH]c(=O)n2)c1 -2.93%, COc1cccc2c1cc1c(=O)n(CC(=O)N3CCN(c4cccc(C)c4)C(C)C3)nc(C)n12 (stereo unspecified) -10.1%, CCCC1=Nc2cc(C(=O)NC3CCCC3)ccc2Sc2ccc(C)cc21 -9.92%, COc1cc(CN(C(=O)COc2ccc(C)cc2)c2ccccn2)cc(OC)c1OC -15.8%, COc1ccc(C(=O)N2CCN(Cc3cc(=O)n4nc(-c5ccccc5C)sc4n3)CC2)cc1OC 3.01%, Cc1cccc(NC(=O)C2CCN(S(=O)(=O)c3ccc(F)cc3)CC2)c1C 1.99%, CCCCNC(=O)c1nn(-c2ccc(CC)cc2)nc1CO 2.45%, CCCn1c(=O)sc2cc(NC(=O)COc3ccc(Cl)cc3)ccc21 -6.47%, CC1CCC(NC(=O)c2ccc3c(c2)N(Cc2cccc(Cl)c2)C(=O)c2ccccc2S3(=O)=O)CC1 (stereo unspecified) 0.208%, CCc1ccccc1NC(=O)Cn1nnc(C(=O)NCc2ccccc2Cl)c1N -5.32%, COc1cccc(CN(C(=O)c2oc3cc(C)ccc3c2C)C2CCS(=O)(=O)C2)c1 (stereo unspecified) -2.71%, CCOC(=O)c1ccc(NS(=O)(=O)c2ccc3c(c2)n(C)c(=O)n3C)cc1 -2.55%, COc1ccc(-c2nc3c4ccccc4n(CC(=O)N4CCN(c5ccccc5OC)CC4)c(=O)n3n2)cc1 4.62%, CCN(CC)CCCNC(=O)CN1C(=O)CCn2nc(-c3cn(C)c4ccccc34)cc21 2.78%, COc1ccc(CCNC(=O)c2ccc3c(c2)c(C)c(C)n3Cc2ccc(F)cc2)c(OC)c1OC 0.843%, COc1ccc(-c2nc(CSCC(=O)N3CCN(c4cccc(C)c4C)CC3)c(C)o2)cc1OC -10.6%, COc1cccc(-n2c(=O)c3c4c(sc3n(Cc3ccc(C)cc3)c2=O)CCCC4)c1 -8.09%, Cc1ccc2nc(-c3ccccc3F)c(Nc3ccc(Cl)cc3)n2c1 -5.01%, Cc1nnc(NC(=O)CSCc2cc(=O)c3cc(Cl)ccc3[nH]2)s1 9.48%, O=S(=O)(NCc1ccc(F)cc1)c1ccc(-c2cnc(C3CC3)o2)cc1 2.64%, Cc1ccc(C(=O)c2cn(CC(=O)NC3CCCCC3)c3nc(C)ccc3c2=O)cc1 -5.23%, Cc1c(C(=O)N2CCCC2)oc2c1-c1nn(CC(=O)NCCCOC(C)C)cc1CC2 0.556%, COc1cccc(C(=O)Nc2ccccc2C(=O)OCc2cc(=O)n3nc(C4CC4)sc3n2)c1 4.92%, O=C(NC1CC(=O)N(c2cccc(F)c2)C1)C1CCCC1 (stereo unspecified) -0.258%, Cc1c(C)c2c(cc(C)c3c(-c4ccccc4)coc32)oc1=O -2.61%, COc1ccccc1-n1ncc2c(=O)[nH]c(SCC(=O)Nc3ccc(Cl)cc3)nc21 -6.98%, Cc1ccc(CNC(=O)c2cccn2-c2nnc(N3CCCCC3)s2)cc1 0%, COc1cc(-c2nc(Cn3nnc(C(=O)Nc4ccccc4)c3C)c(C)o2)cc(OC)c1OC -26.4%, O=C(Nc1cc2c(cc1C(=O)c1ccccc1)OCCO2)c1ccc(Br)cc1 -20.2%, O=C(c1cccn1-c1nnc(N2CCCC2)s1)N1CCN(c2ccccc2)CC1 2.81%, CN(C)CCN(Cc1ccccc1)S(=O)(=O)c1ccc2[nH]c(=O)ccc2c1 -1.51%, Cc1ccccc1-c1nc(SCC(=O)NCc2ccco2)c2c(=O)n(C)c(=O)n(C)c2n1 0.932%, COc1ccc2oc(=O)c(-c3csc(-c4ccc(Br)cc4)n3)cc2c1 1.12%, COc1cccc(-n2cc(C(=O)NCCc3ccc(C)cc3)c3ccccc3c2=O)c1 10.2%, O=C(/C=C\c1ccc2c(c1)OCO2)NC1CC(=O)N(c2ccc(Cl)cc2)C1 (stereo unspecified) 3.12%, Cc1ccc(NC(=O)C2CCN(S(=O)(=O)c3c(C)noc3C)CC2)c(C)c1 -8.84%, COc1ccc(-c2csc3nc(-c4ccccc4C)oc(=O)c23)cc1OC -1.32%, CC(=O)N1CCOc2cc(S(=O)(=O)NCc3ccc(C)cc3)c(Cl)cc21 -0.133%, CCOc1ccccc1NC(=O)c1cc(=O)c2ccc(C)cc2o1 -1.78%, COc1ccc(NC(=O)CSc2oc(-c3cccs3)nc2S(=O)(=O)c2ccc(C)cc2)c(OC)c1 3.11%, CCSc1nc(-c2ccccc2OC)nc2c1Cc1c(CO)cnc(C)c1O2 -0.283%, CCOC(=O)c1c(C)oc2ncnc(N3CCN(c4ccccc4F)CC3)c12 -3.93%, O=C(Cc1cccs1)NC1CC(=O)N(c2cccc(F)c2)C1 (stereo unspecified) 3.73%, Cn1c(=O)n(C)c2cc(NS(=O)(=O)c3ccc(F)cc3)ccc21 -0.709%, COc1cccc(C(=O)Nc2ccc3nc(SCC(=O)N4CCOCC4)sc3c2)c1 0%, Cc1cc(C)n2c(Nc3ccc(Cl)cc3)c(-c3ccsc3)nc2n1 -8.21%, COc1cc2nc(NCCC(C)C)n3nc(-c4ccccc4)nc3c2cc1OC -8.08%, Cc1ccc2c(CN3CCN(C(=O)c4ccc(F)cc4)CC3)cc(=O)oc2c1 1.7%, Cc1ccc(OCC(=O)N(c2ccc(C)cc2)S(=O)(=O)c2ccc(Cl)cc2)cc1 -2.85%, CCOc1ccccc1NC(=O)CSc1nc(=O)[nH]c2c1CCCC2 -3.78%, O=C(CS(=O)(=O)c1cccc2nsnc12)Nc1ccccc1 -1.2%, COc1ccccc1CNC(=O)CN1C(=O)COc2ccc(S(=O)(=O)Nc3ccccc3)cc21 -11.6%, CSCCC(NS(=O)(=O)c1ccc2c(c1)oc(=O)n2C)C(=O)N1CCN(c2cc(C)ccc2C)CC1 (stereo unspecified) -6.42%, COc1ccc(C2CC(=O)NC(NC(=O)c3ccc(Br)cc3)=N2)c(OC)c1OC (stereo unspecified) -8.06%, CC(C)(C)c1ccc(C(=O)NCCc2csc3nc(-c4ccccc4F)nn23)cc1 -2.7%
